According to the supplement of paper PMC10600219:
Structures can show the parent of a compound that is named as a salt. The full ranking holds about 2,800 compounds; the median of “cell viability relative to vehicle” is about 1.1, and the lowest 2% start at about 0.19. The list shows a part of the results.

These compounds were tested on NCI-H2228 parental (assay: cell viability relative to vehicle (fraction of vehicle); NCI-H2228 is an ALK-positive lung cancer line and DTP means drug-tolerant persister; higher = less growth inhibition). Conditions: 100 nM; treatment time 6 days.
In short: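 The 3114-agent TargetMol anti-cancer compound library was tested at 100 nM for 6 days on parental NCI-H2228 cells and on persister cells derived with 1000 nM of a targeted drug for 13 days. ATP readout by the CellTiter-Glo 3D Cell Viability Assay gave cell viability relative to DMSO vehicle-treated cells.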
Work on `COc1ccc2c3n(c(=NC(=O)c4cccnc4)nc2c1OC)CCN3` yielded a cell viability of 0.536. `CC(=O)O[C@H]1CC(=O)OC(C)(C)[C@@H]2CC(=O)[C@]3(C)[C@H](CC[C@@]4(C)[C@@H](c5ccoc5)OC(=O)[C@H]5O[C@]543)[C@@]12C` [Nomilin] gave a cell viability of 1.13. `Nc1ccn([C@H]2C[C@H](O)[C@@H](CO)O2)c(=O)n1` [2'-Deoxycytidine monohydrate] was tested, and the cell viability was 1.07. For `CCN(CC)c1ccc(/C=N/NC(=O)c2ccc(O)cc2)cc1`, the cell viability was 1.07. `CCCCCOc1ccccc1/C(=C\SC)n1ccnc1` [Neticonazole Hydrochloride] was tested, and the cell viability was 0.981. For `CO[C@H]1/C=C/O[C@@]2(C)Oc3c(C)c(O)c4c(O)c(c5c(nc6cc(C)ccn65)c4c3C2=O)NC(=O)/C(C)=C\C=C\[C@H](C)[C@H](O)[C@@H](C)[C@@H](O)[C@@H](C)[C@H](OC(C)=O)[C@@H]1C` [Rifaximin], the cell viability was 1.03. In the case of `C[C@]12C=CC(=O)N[C@@H]1CC[C@@H]1[C@@H]2CC[C@]2(C)[C@@H](C(=O)Nc3cc(C(F)(F)F)ccc3C(F)(F)F)CC[C@@H]12` [Dutasteride], the cell viability is reported as 1.08. For `Clc1cccc(Cl)c1NC1=NCCN1` [Clonidine hydrochloride], the cell viability was 1.03. For `CN(C)S(=O)(=O)c1ccc2c(c1)/C(=C/c1cc3c([nH]1)CCCC3)C(=O)N2`, the cell viability was 1.07. With `Cn1ncnc1[C@H]1c2n[nH]c(=O)c3cc(F)cc(c23)N[C@@H]1c1ccc(F)cc1` [Talazoparib] the cell viability was 0.618. For `Cc1cnc(Nc2ccc(OCCN3CCCC3)cc2)nc1Nc1cccc(S(=O)(=O)NC(C)(C)C)c1` [Fedratinib], the cell viability was 1.04. `C=CCN(C)CCCCCCOc1ccc(C(=O)c2ccc(Br)cc2)c(F)c1` [Ro 48-8071 fumarate] was tested, and the cell viability was 1.07. Compound `CC(=O)O[C@]1(C(C)=O)CC[C@H]2[C@@H]3C=C(Cl)C4=CC(=O)CC[C@]4(C)[C@H]3CC[C@@]21C` [Chlormadinone acetate] has a cell viability of 0.992. Compound `COc1ccc(Cl)c(Nc2nc3ccccc3nc2NS(=O)(=O)c2cccc(NC(=O)C(C)(C)N)c2)c1` [Pilaralisib] has a cell viability of 1.12. For `CCCNC(=O)NS(=O)(=O)c1ccc(Cl)cc1` [Chlorpropamide], the cell viability was 1.24. `O=C(Cc1ccccc1)Nc1nnc(CCSCCc2nnc(NC(=O)Cc3ccccc3)s2)s1` showed a cell viability of 1.1. With `c1ccc2c(CCNc3ccc(Nc4ccncc4)cc3)c[nH]c2c1` [Serdemetan] the cell viability was 0.998. `C[C@H](O)[C@@H](O)[C@@H](O)[C@H](O)C=O` [L-(-)-Fucose] showed a cell viability of 1.08. With `NCCCCCC(=O)O` [6-Aminocaproic acid] the cell viability was 1.05. Work on `CN(C)C(=N)NC(=N)N` [Metformin hydrochloride] yielded a cell viability of 1.14. `COc1c(C)cnc(Cn2cnc3c(Cl)nc(N)nc32)c1C` showed a cell viability of 0.277. Work on `CC1=C(C)C(=O)C(C(CCCCCC(=O)O)c2ccccc2)=C(C)C1=O` (centres undefined) [Seratrodast] yielded a cell viability of 0.986. `CNCCc1ccccn1` [Betahistine mesylate] showed a cell viability of 1. With `CNCCc1ccccn1` [Betahistine] the cell viability was 0.93. Work on `CNCCc1ccccn1` [Betahistine dihydrochloride] yielded a cell viability of 1.1. With `Cc1csc(-c2nnc(Nc3ccc(Oc4ncccc4-c4ccnc(N)n4)cc3)c3ccccc23)c1` the cell viability was 0.143. `CC(C)c1cccc(O)c(=O)c1` [β-thujaplicin] showed a cell viability of 0.965. For `Nc1nc2c(ncn2COC(CO)CO)c(=O)[nH]1` [Ganciclovir], the cell viability was 1.1. `C[C@H]1[C@H](C)CC[C@]2(C(=O)O)CC[C@]3(C)C(=CC[C@@H]4[C@@]5(C)CC[C@H](O)C(C)(C)[C@@H]5CC[C@]43C)[C@H]12` [Ursolic acid] showed a cell viability of 1.17. For `NC(=O)Nc1cc(-c2cccc(F)c2)sc1C(=O)N[C@H]1CCCNC1`, the cell viability was 0.381. `OC(c1cc(-c2ccc(Cl)cc2)nc2ccccc12)C1CCCCN1` (centres undefined) [Vacquinol-1] gave a cell viability of 1.15. With `CC(=O)[C@@]1(O)CC[C@H]2[C@@H]3CCC4=CC(=O)CC[C@]4(C)[C@H]3CC[C@@]21C` [Hydroxyprogesterone] the cell viability was 1.35. Compound `O=C(c1c(F)ccc(NS(=O)(=O)N2CC[C@@H](F)C2)c1F)c1c[nH]c2ncc(-c3cnc(C4CC4)nc3)cc12` has a cell viability of 1.18. Work on `Nc1nc(O)c2[nH]nnc2n1` [8-Azaguanine] yielded a cell viability of 0.571. Work on `COc1cccc2c(NCc3ccccc3)nc(-n3c(N)nc4ccccc43)nc12` yielded a cell viability of 1.12. Compound `Nc1nccc(Oc2ccc(NC(=O)c3c[nH]cc(-c4ccc(F)cc4)c3=O)cc2F)c1Cl` has a cell viability of 1.14. Compound `CN(C)CCOC(c1ccccc1)c1ccccc1.Cn1c(=O)c2[nH]c(Cl)nc2n(C)c1=O` [Dimenhydrinate] has a cell viability of 1.1. Compound `CCS(=O)(=O)N1CC(CC#N)(n2cc(-c3ncnc4[nH]ccc34)cn2)C1` [Baricitinib] has a cell viability of 0.886. `CCS(=O)(=O)N1CC(CC#N)(n2cc(-c3ncnc4[nH]ccc34)cn2)C1` [Baricitinib Phosphate] was tested, and the cell viability was 1.3. `O=C1NCC2(CCN(CCc3ccccc3)CC2)O1` [Fenspiride hydrochloride] was tested, and the cell viability was 1.12. `Clc1ccc2c(c1)CCc1cccnc1C2=C1CCNCC1` [Desloratadine] gave a cell viability of 1.2. With `C[C@@H]1O[C@@H](O[C@@H]2[C@@H](O)[C@H](OCCc3ccc(O)c(O)c3)O[C@H](COC(=O)/C=C/c3ccc(O)c(O)c3)[C@H]2O)[C@H](O)[C@H](O)[C@H]1O` [Isoacteoside] the cell viability was 1.02. In the case of `Cc1cc(C)c(S(=O)(=O)N(CCc2cccc(Br)c2)Cc2ccc(-c3cccc(S(C)(=O)=O)c3)cc2)c(C)c1`, the cell viability is reported as 1.19. `O=S(=O)(c1cccc2c(O)nccc12)N1CCCNCC1` [Hydroxyfasudil Hydrochloride] was tested, and the cell viability was 1.06. `Cc1[nH]cnc1CN1CCc2c(c3ccccc3n2C)C1=O` [Alosetron hydrochloride] gave a cell viability of 1.14. In the case of `O=C(O)CCc1ccc(NCc2cccc(Oc3ccccc3)c2)cc1`, the cell viability is reported as 1.1. With `COc1cc(C(C)C)c(Oc2cnc(N)nc2N)cc1I` the cell viability was 1.16. For `COc1cn(-c2ccc(-n3cccn3)cc2F)nc(-c2ccnn2-c2ccccc2)c1=O`, the cell viability was 1.08. For `Nc1ncnc2c1ncn2[C@@H]1O[C@H](CO)[C@@H](O)[C@@H]1O` [Vidarabine], the cell viability was 0.968.
